Test results published in patent US11618753B2 (priority 2018, dated 2023).

The compounds below were run on MLKL phosphorylation, HT29-L23 human colorectal adenocarcinoma cells (assay: cells). Conditions: read-out: pMLKL HCS Cell Assay (IC50, uM).

First: COc1ncc(-c2cc(CN3CCC(F)(F)CC3)c3c(N)ncnn23)cc1C(=O)N[C@@H]1CN(C(=O)c2cc(C)ncc2F)C[C@@H]1F [Example 1259, 5-{4-amino-5-[(4,4-difluoropiperidin-1-yl)methyl]pyrrolo[2,1-f][1,2,4]triazin-7-yl}-N-[(3R,4S)-4-fluoro-1-(5-fluoro-2-methylpyridine-4-carbonyl)pyrrolidin-3-yl]-2-methoxypyridine-3-carboxamide]
Second: COc1ncc(-c2cc(CN3CCC(F)(F)CC3)c3c(N)ncnn23)cc1C(=O)N[C@@H]1CN(C(=O)c2cccc(F)c2Cl)C[C@@H]1F [Example 1265, 5-{4-amino-5-[(4,4-difluoropiperidin-1-yl)methyl]pyrrolo[2,1-f][1,2,4]triazin-7-yl}-N-[(3R,4S)-1-(2-chloro-3-fluorobenzoyl)-4-fluoropyrrolidin-3-yl]-2-methoxypyridine-3-carboxamide]
The IC50 of the first is 2.2-fold higher: 0.0016 µM for the first, 0.00072 µM for the second.

Compared with COc1ncc(-c2cc(CN3CCC(F)(F)CC3)c3c(N)ncnn23)cc1C(=O)N[C@@H]1CN(C(=O)C(C)(C)O)C[C@@H]1F [Example 1260, 5-{4-amino-5-[(4,4-difluoropiperidin-1-yl)methyl]pyrrolo[2,1-f][1,2,4]triazin-7-yl}-N-[(3R,4S)-4-fluoro-1-(2-hydroxy-2-methylpropanoyl)pyrrolidin-3-yl]-2-methoxypyridine-3-carboxamide], COc1ncc(-c2cc(CN3CCC(F)(F)CC3)c3c(N)ncnn23)cc1C(=O)N[C@@H]1CN(C(=O)C(C)C(F)(F)F)C[C@@H]1F (stereo partly drawn) [Example 1266, 5-{4-amino-5-[(4,4-difluoropiperidin-1-yl)methyl]pyrrolo[2,1-f][1,2,4]triazin-7-yl}-N-[(3R,4S)-4-fluoro-1-(3,3,3-trifluoro-2-methylpropanoyl)pyrrolidin-3-yl]-2-methoxypyridine-3-carboxamide] is 1.6-fold higher in IC50: 0.00055 µM for the first, 0.00087 µM for the second.

First: COc1ncc(-c2cc(CN3CCC(F)(F)CC3)c3c(N)ncnn23)cc1C(=O)N[C@@H]1CN(C(=O)CC(F)(F)F)C[C@@H]1F [Example 1261, 5-{4-amino-5-[(4,4-difluoropiperidin-1-yl)methyl]pyrrolo[2,1-f][1,2,4]triazin-7-yl}-N-[(3R,4S)-4-fluoro-1-(3,3,3-trifluoropropanoyl)pyrrolidin-3-yl]-2-methoxypyridine-3-carboxamide]
Second: COc1ncc(-c2cc(CN3CCC(F)(F)CC3)c3c(N)ncnn23)cc1C(=O)N[C@@H]1CN(C(=O)c2ccc(F)c(F)c2)C[C@@H]1F [Example 1262, 5-{4-amino-5-[(4,4-difluoropiperidin-1-yl)methyl]pyrrolo[2,1-f][1,2,4]triazin-7-yl}-N-[(3R,4S)-1-(3,4-difluorobenzoyl)-4-fluoropyrrolidin-3-yl]-2-methoxypyridine-3-carboxamide]
The IC50 of the first is 2.5-fold higher: 0.0028 µM for the first, 0.0011 µM for the second.

COc1ncc(-c2cc(CN3CCC(F)(F)CC3)c3c(N)ncnn23)cc1C(=O)N[C@@H]1CN(C(=O)c2ccc(F)cn2)C[C@@H]1F [Example 1264, 5-{4-amino-5-[(4,4-difluoropiperidin-1-yl)methyl]pyrrolo[2,1-f][1,2,4]triazin-7-yl}-N-[(3R,4S)-4-fluoro-1-(5-fluoropyridine-2-carbonyl)pyrrolidin-3-yl]-2-methoxypyridine-3-carboxamide] and COc1ncc(-c2cc(CN3CCC(F)(F)CC3)c3c(N)ncnn23)cc1C(=O)N[C@@H]1CN(C(=O)c2ncccc2F)C[C@@H]1F [Example 1269, 5-{4-amino-5-[(4,4-difluoropiperidin-1-yl)methyl]pyrrolo[2,1-f][1,2,4]triazin-7-yl}-N-[(3R,4S)-4-fluoro-1-(3-fluoropyridine-2-carbonyl)pyrrolidin-3-yl]-2-methoxypyridine-3-carboxamide] are within 1.5-fold of each other in IC50: 0.0039 µM for the first, 0.003 µM for the second.

COc1ncc(-c2cc(CN3CCC(F)(F)CC3)c3c(N)ncnn23)cc1C(=O)N[C@@H]1CN(C(=O)c2cc(F)cc(F)c2)C[C@@H]1F [Example 1267, 5-{4-amino-5-[(4,4-difluoropiperidin-1-yl)methyl]pyrrolo[2,1-f][1,2,4]triazin-7-yl}-N-[(3R,4S)-1-(3,5-difluorobenzoyl)-4-fluoropyrrolidin-3-yl]-2-methoxypyridine-3-carboxamide] and COc1ncc(-c2cc(CN3CCC(F)(F)CC3)c3c(N)ncnn23)cc1C(=O)N[C@@H]1CN(C(=O)c2c(F)cccc2Cl)C[C@@H]1F [Example 1270, 5-{4-amino-5-[(4,4-difluoropiperidin-1-yl)methyl]pyrrolo[2,1-f][1,2,4]triazin-7-yl}-N-[(3R,4S)-1-(2-chloro-6-fluorobenzoyl)-4-fluoropyrrolidin-3-yl]-2-methoxypyridine-3-carboxamide] are within 1.5-fold of each other in IC50: 0.0011 µM for the first, 0.00079 µM for the second.

Compared with COc1ncc(-c2cc(CN3CCC(F)(F)CC3)c3c(N)ncnn23)cc1C(=O)N[C@@H]1CN(C(=O)c2ccncc2Cl)C[C@@H]1F [Example 1268, 5-{4-amino-5-[(4,4-difluoropiperidin-1-yl)methyl]pyrrolo[2,1-f][1,2,4]triazin-7-yl}-N-[(3R,4S)-1-(3-chloropyridine-4-carbonyl)-4-fluoropyrrolidin-3-yl]-2-methoxypyridine-3-carboxamide], [2H]C([2H])([2H])Oc1ncc(-c2cc(CN3CC(F)(F)C3)c3c(N)ncnn23)cc1C(=O)N[C@@H]1CN(C(=O)c2ccc(F)cc2)C[C@@H]1F [Example 1275, 5-{4-amino-5-[(3,3-difluoroazetidin-1-yl)methyl]pyrrolo[2,1-f][1,2,4]triazin-7-yl}-N-[(3R,4S)-4-fluoro-1-(4-fluorobenzoyl)pyrrolidin-3-yl]-2-(methoxy-d3)nicotinamide] is 1.5-fold lower in IC50: 0.0015 µM for the first, 0.00098 µM for the second. The second is the more potent here.

[2H]C([2H])([2H])Oc1ncc(-c2cc(CN3CC(F)(F)C3)c3c(N)ncnn23)cc1C(=O)N[C@@H]1CN(C(=O)C2CCC(F)(F)C2)C[C@@H]1F (stereo partly drawn) [Example 1272, 5-{4-amino-5-[(3,3-difluoroazetidin-1-yl)methyl]pyrrolo[2,1-f][1,2,4]triazin-7-yl}-N-[(3R,4S)-1-(3,3-difluorocyclopentanecarbonyl)-4-fluoropyrrolidin-3-yl]-2-(methoxy-d3)nicotinamide] and [2H]C([2H])([2H])Oc1ncc(-c2cc(CN3CC(F)(F)C3)c3c(N)ncnn23)cc1C(=O)N[C@@H]1CN(C(=O)C2CC(F)(F)C2)C[C@@H]1F [Example 1274, 5-{4-amino-5-[(3,3-difluoroazetidin-1-yl)methyl]pyrrolo[2,1-f][1,2,4]triazin-7-yl}-N-[(3R,4S)-1-(3,3-difluorocyclobutanecarbonyl)-4-fluoropyrrolidin-3-yl]-2-(methoxy-d3)nicotinamide] are within 1.5-fold of each other in IC50: 0.00038 µM for the first, 0.00042 µM for the second.

[2H]C([2H])([2H])Oc1ncc(-c2cc(CN3CC(F)(F)C3)c3c(N)ncnn23)cc1C(=O)N[C@@H]1CN(C(=O)C2CC(F)C2)C[C@@H]1F (stereo partly drawn) [Example 1273, 5-{4-amino-5-[(3,3-difluoroazetidin-1-yl)methyl]pyrrolo[2,1-f][1,2,4]triazin-7-yl}-N-[(3R,4S)-4-fluoro-1-(3-fluorocyclobutanecarbonyl)pyrrolidin-3-yl]-2-(methoxy-d3)nicotinamide] and [2H]C([2H])([2H])Oc1ncc(-c2cc(CN3CC(F)(F)C3)c3c(N)ncnn23)cc1C(=O)N[C@@H]1CN(C(=O)C(C)(C)C)C[C@@H]1F [Example 1277, 5-{4-amino-5-[(3,3-difluoroazetidin-1-yl)methyl]pyrrolo[2,1-f][1,2,4]triazin-7-yl}-N-[(3R,4S)-1-(2,2-dimethylpropanoyl)-4-fluoropyrrolidin-3-yl]-2-(methoxy-d3)nicotinamide] are within 1.5-fold of each other in IC50: 0.00086 µM for the first, 0.0011 µM for the second.

Compared with [2H]C([2H])([2H])Oc1ncc(-c2cc(CN3CC(F)(F)C3)c3c(N)ncnn23)cc1C(=O)N[C@@H]1CN(C(=O)C(C)(C)C(F)(F)F)C[C@@H]1F [Example 1276, 5-{4-amino-5-[(3,3-difluoroazetidin-1-yl)methyl]pyrrolo[2,1-f][1,2,4]triazin-7-yl}-N-[(3R,4S)-4-fluoro-1-(3,3,3-trifluoro-2,2-dimethylpropanoyl)pyrrolidin-3-yl]-2-(methoxy-d3)nicotinamide], [2H]C([2H])([2H])Oc1ncc(-c2cc(CN3CC(F)(F)C3)c3c(N)ncnn23)cc1C(=O)N[C@@H]1CN(S(=O)(=O)CC(F)(F)F)C[C@@H]1F [Example 1278, 5-{4-amino-5-[(3,3-difluoroazetidin-1-yl)methyl]pyrrolo[2,1-f][1,2,4]triazin-7-yl}-N-[(3R,4S)-4-fluoro-1-(2,2,2-trifluoroethanesulfonyl)pyrrolidin-3-yl]-2-(methoxy-d3)nicotinamide] is 3-fold higher in IC50: 0.00064 µM for the first, 0.0019 µM for the second.

Going from [2H]C([2H])([2H])Oc1ncc(-c2cc(CN3CC(F)(F)C3)c3c(N)ncnn23)cc1C(=O)N[C@@H]1CN(S(=O)(=O)c2ccc(F)cc2)C[C@@H]1F [Example 1280, 5-{4-amino-5-[(3,3-difluoroazetidin-1-yl)methyl]pyrrolo[2,1-f][1,2,4]triazin-7-yl}-N-[(3R,4S)-4-fluoro-1-(4-fluorobenzenesulfonyl)pyrrolidin-3-yl]-2-(methoxy-d3)nicotinamide] to [2H]C([2H])([2H])Oc1ncc(-c2cc(CN3CC(F)(F)C3)c3c(N)ncnn23)cc1C(=O)N[C@@H]1CN(S(=O)(=O)CC)C[C@@H]1F [Example 1283, 5-{4-amino-5-[(3,3-difluoroazetidin-1-yl)methyl]pyrrolo[2,1-f][1,2,4]triazin-7-yl}-N-[(3R,4S)-1-(ethanesulfonyl)-4-fluoropyrrolidin-3-yl]-2-(methoxy-d3)nicotinamide], the IC50 rises from 0.00032 µM to 0.0024 µM (7.5-fold).

First: [2H]C([2H])([2H])Oc1ncc(-c2cc(CN3CC(F)(F)C3)c3c(N)ncnn23)cc1C(=O)N[C@@H]1CN(S(=O)(=O)C2CCCCC2)C[C@@H]1F [Example 1281, 5-{4-amino-5-[(3,3-difluoroazetidin-1-yl)methyl]pyrrolo[2,1-f][1,2,4]triazin-7-yl}-N-[(3R,4S)-1-(cyclohexanesulfonyl)-4-fluoropyrrolidin-3-yl]-2-(methoxy-d3)nicotinamide]
Second: [2H]C([2H])([2H])Oc1ncc(-c2cc(CN3CC(F)(F)C3)c3c(N)ncnn23)cc1C(=O)N[C@@H]1CN(S(=O)(=O)C2CC2)C[C@@H]1F [Example 1284, 5-{4-amino-5-[(3,3-difluoroazetidin-1-yl)methyl]pyrrolo[2,1-f][1,2,4]triazin-7-yl}-N-[(3R,4S)-1-(cyclopropanesulfonyl)-4-fluoropyrrolidin-3-yl]-2-(methoxy-d3)nicotinamide]
The IC50 of the first is 4-fold lower: 0.00043 µM for the first, 0.0017 µM for the second.
